Experimental data reported in PubChem BioAssay AID588855 (National Center for Advancing Translational Sciences (NCATS), 2011).
Screen size: about 410,000 compounds; about 5,000 (1.2%) were called active. The shares of active, inactive and inconclusive entries below differ from those in the screen. Calls come from the whole dose curve; as a rule, active = well fitted inhibition curve with a large enough effect; inconclusive = small, poorly fitted or top-dose-only effect; inactive = no such curve, though single readings can be large or run the other way. Where the call is inconclusive, the potency comes from a doubtful curve fit.

Experiment: qHTS for Inhibitors of TGF-b; note: nearly all actives have a fitted effect of over 65% in size
Conditions: HepG2 CAGA-GFP TGF-b/SMAD3 reporter, GFP fluorescence, 18 h, TGF-beta stimulated, 500 pg/mL final; series mostly up to 46.1 µM
In short: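 Read-out: total well GFP (ex488/em500-530) summed from mean per-cell fluorescence. Cells: HEPG2 CAGA-GFP, 1% FBS DMEM, 18 h at 37 degrees C with 500 pg/mL final TGF-beta. Unstimulated wells served as the full-inhibition control; stimulated DMSO wells = 0%.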
Potency is the fitted concentration of half-maximal effect; tags give direction and shape of the fitted curve.

SMILES	Potency
CN(Cc1ccccc1F)c1nc(-c2cccs2)nc2ccccc12	inactive
Cc1ccc(Cl)cc1N1CCN(S(=O)(=O)c2c(C)[nH]c(C)c2C(=O)N2CCCCC2)CC1	inconclusive: 20 µM [inhibitor, single point]
COCCNC(=O)Cn1c(=O)n(Cc2ccco2)c(=O)c2ccccc21	inactive
CCC(=O)Nc1ccc(N2CCCCC2)cc1	inactive
Cc1ccc(C2NC(=O)c3ccccc3N2)c(C)c1 (stereo unspecified)	inactive
CC(=O)c1cc2c(cc1N(C(=O)c1ccco1)C(C(=O)NC1CCCC1)c1ccccc1F)OCO2 (stereo unspecified)	inconclusive: 5.62 µM [inhibitor, single point]
COc1ccc(CCNCCC(=O)Nc2c(C)cc(C)cc2C)cc1OC	inactive
COC(=O)c1[nH]c2ccc(C)cc2c1NS(=O)(=O)c1ccc(F)c(C)c1	inactive
CCN(c1cccc(C)c1)C(CNS(=O)(=O)c1ccccc1)c1ccccc1 (stereo unspecified)	inconclusive: 20 µM [inhibitor, single point]
COc1cc(Cl)ccc1OCc1cc(C(=O)N2CC[C@@H]3CCCC[C@H]3C2)no1	inconclusive: 28.2 µM [inhibitor, single point]
O=C(NC1CCN(Cc2ccc(Cl)cc2)CC1)c1cn(-c2ccccc2)nc1-c1cccnc1	inconclusive: 35.5 µM [inhibitor, single point]
COc1ccc(C)cc1S(=O)(=O)N1CCC(C(=O)N2CCOCC2)CC1	inconclusive: 1 µM [inhibitor, full curve, poor fit]
Cc1sc(N)nc1-c1ccc(Oc2ccccc2)cc1	inconclusive: 14.1 µM [inhibitor, single point]
CC(=O)C1=CCC(c2ccc(Cl)cc2)N(S(=O)(=O)c2ccccc2)C1 (stereo unspecified)	inactive
CN(C)S(=O)(=O)c1ccc2c(c1)C(=O)c1cc(S(=O)(=O)N(C)C)ccc1CC2	inactive
CCCCCCC(=O)Nc1nc(C)c(-c2csc(Nc3cc(Cl)ccc3OC)n2)s1	inconclusive: 7.94 µM [inhibitor, partial curve]
Cc1nc(NC(=O)c2cc3c(C)nn(-c4ccccc4)c3s2)sc1C(=O)Nc1ccccc1	inactive
CCC(C)NCCOCCOc1ccc(Cl)c2ccccc12 (stereo unspecified)	inconclusive: 20 µM [inhibitor, single point]
O=C1C=CC(=C(c2ccc(O)cc2)c2ccc(O)cc2)C=C1	inconclusive: 22.4 µM [inhibitor, single point]
O=C(Cn1c(=O)n(Cc2ccc(C(=O)NCc3ccccc3Cl)cc2)c(=O)c2ccccc21)Nc1ccc(F)cc1	inactive
OCC1OC(n2cnc3ncccc32)C(O)C1O (stereo unspecified)	inconclusive: 35.5 µM [inhibitor, single point]
CC1Nc2ncnc(N3CCN(c4ccccn4)CC3)c2N(Cc2ccccc2)C1=O (stereo unspecified)	inactive
CN(C)CCN(C)Cc1ccccc1Sc1cccc2ccccc12	inconclusive: 10 µM [inhibitor, single point]

SMILES	Potency
COc1ccc(-c2c(-c3cc(OC)cc(OC)c3)n(C)c3ccc(-c4ccn[nH]4)cc23)cc1	inconclusive: 12.6 µM [inhibitor, single point]
COc1ccc(/C=C/C(=O)c2c(C)cc(C)[nH]c2=O)c2ccccc12	active: 17.8 µM
COc1cc(C=O)ccc1OCCOCCOc1ccc(Cl)cc1Cl	inactive
Cc1ccccc1C(=O)c1ccc2c(c1)n(C)c(=O)n2C	inactive
Cc1cccc(N2CCN(c3ncnc4onc(-c5ccc(F)cc5)c34)CC2C)c1 (stereo unspecified)	inconclusive: 12.6 µM [inhibitor, single point]
CC(=O)NC1=C(NC2CCS(=O)(=O)C2)C(=O)c2ccccc2C1=O (stereo unspecified)	inconclusive: 35.5 µM [inhibitor, single point]
COc1ccc(-n2c(CNc3ccc(C)cc3)nnc2SCc2ccccc2)cc1	inconclusive: 25.1 µM [inhibitor, single point]
O=C(CC(c1cccs1)N1Cc2ccccc2C1=O)Nc1ccc(Cl)cc1 (stereo unspecified)	inconclusive: 35.5 µM [inhibitor, single point]
O=C(Nc1ccc(F)cc1F)C1CCN(c2ncnc3c2sc2cccc(F)c23)CC1	inconclusive: 35.5 µM [inhibitor, single point]
COc1ccccc1Nc1nc2c(S(=O)(=O)c3ccc(C(C)C)cc3)nnn2c2ccsc12	inconclusive: 35.5 µM [inhibitor, single point]
COC(=O)c1c(NC(=O)c2ccc([N+](=O)[O-])o2)sc2c1CCN(C(C)C)C2	active: 20 µM
Cc1cc(N2CCCCCC2)nc(-c2ccccc2O)n1	inactive
Oc1cccc(-c2nc3ncccn3c2Nc2cccc(C(F)(F)F)c2)c1	active: 12.6 µM
CCc1ccc(OCC(=O)NCC(c2ccc(Cl)cc2)N2CCCCC2)cc1 (stereo unspecified)	inconclusive: 35.5 µM [inhibitor, single point]
CN(C)C(=O)c1ccc(SC(=S)NCc2ccccc2)cc1	inconclusive: 22.4 µM [inhibitor, single point]
Cc1ccc2nc(SCC(=O)Nc3cccc([N+](=O)[O-])c3)[nH]c2c1	inconclusive: 35.5 µM [inhibitor, single point]
CCc1cc2c(=O)c(-c3nc4ccccc4n3C)c(C(C)C)oc2c(CN2CCN(C)CC2)c1O	inconclusive: 14.1 µM [inhibitor, single point]
N/C(=N\OC(=O)Cc1ccc([N+](=O)[O-])cc1)c1ccc([N+](=O)[O-])cc1	inactive
Cc1ccc(CNc2ccc(-c3nc(-c4cccnc4)no3)cc2[N+](=O)[O-])cc1	inactive
Cc1cccc(C)c1N1CCN(C(=O)Cn2cncn2)CC1	inconclusive: 35.5 µM [inhibitor, single point]
CCCCC(=O)N(C)c1c(CC)nc2c(OCc3ccc(Cl)cc3Cl)cccn12	inconclusive: 15.8 µM [inhibitor, partial curve, poor fit]
O=S(=O)(NCC1CCCN(Cc2ccccc2O)C1)c1cccc2cccnc12 (stereo unspecified)	inactive
CCCCCCSc1cc(-c2nc3ccc(C)cn3c2NCc2ccccc2)ccc1OC	inconclusive: 28.2 µM [inhibitor, single point]
